Molecular target: T1, HLA A2.1 (Homo sapiens, UniProt P04439, D140Y/D185E/D98H/E176V/E277Q/G131W/G231S/I119V/I121R/I166T/I218V/L300P/L318F/N151K/N90K/P208A/P217A/Q86G/Q94H/R138H/R169H/T345S)
T1 construct: expressed in transfected cells
Type: cell-based

## FRIGCRHSR [HIV Vpr peptide]
  thermostabilization of HLA A2.1 surface expression: not A2.1
